Results taken from PubChem BioAssay AID1159614 (National Center for Advancing Translational Sciences (NCATS), 2016).
In all, about 45,000 compounds went through this assay and about 65 (0.1%) were called active. Calls come from the whole dose curve; as a rule, active = well fitted activation curve with a large enough effect; inconclusive = small, poorly fitted or top-dose-only effect; inactive = no such curve, though single readings can be large or run the other way. The list shows a part of the results.

Each compound was assayed against Galactocerebrosidase (Homo sapiens) (UniProt P54803) (assay: A Novel Cell-Based Assay to Identify Small Molecules for B -Galactocerebrosidase). Conditions: 145M-Twi-hGALC-G270D cells (Twitcher mouse brain line with human GALC G270D), HMU-beta-Gal fluorescence, 48 h; series mostly up to 57.5 µM; activation: at the top concentration.
Chain of UniProt P54803 (P54803 whole entry, looked up): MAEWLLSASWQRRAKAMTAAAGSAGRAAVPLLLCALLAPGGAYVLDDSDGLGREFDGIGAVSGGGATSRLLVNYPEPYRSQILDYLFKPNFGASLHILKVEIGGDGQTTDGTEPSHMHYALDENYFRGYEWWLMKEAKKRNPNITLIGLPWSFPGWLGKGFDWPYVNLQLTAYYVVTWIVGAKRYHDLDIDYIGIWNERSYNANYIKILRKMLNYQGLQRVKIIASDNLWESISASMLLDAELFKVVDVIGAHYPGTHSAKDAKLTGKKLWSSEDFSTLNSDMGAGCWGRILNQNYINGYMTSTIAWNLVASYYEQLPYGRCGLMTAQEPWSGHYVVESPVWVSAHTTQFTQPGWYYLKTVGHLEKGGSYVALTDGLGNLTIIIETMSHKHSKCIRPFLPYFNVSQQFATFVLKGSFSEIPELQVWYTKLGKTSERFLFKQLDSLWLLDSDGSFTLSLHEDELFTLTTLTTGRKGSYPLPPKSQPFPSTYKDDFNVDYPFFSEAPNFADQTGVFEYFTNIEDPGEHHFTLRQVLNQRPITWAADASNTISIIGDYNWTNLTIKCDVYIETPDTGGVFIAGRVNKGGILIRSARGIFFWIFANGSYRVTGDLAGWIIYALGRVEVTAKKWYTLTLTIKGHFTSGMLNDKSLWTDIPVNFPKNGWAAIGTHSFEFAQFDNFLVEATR
Outline: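 Fluorescence readout: HMU-β-gal cleavage by mutant GALC (0.1 mM final, citrate/phosphate pH 5.2 with 1 mg/mL taurocholate), stopped with carbonate/bicarbonate plus Triton X-100. Cells: murine Twitcher 145M-Twi expressing human G270D GALC; qHTS for activators.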
Note: 0% is about no effect; nearly all actives have a fitted effect of over 65% in size.

activation, inactive:
CCn1cc(C(=O)NCCc2ccc(C)cc2)c(=O)c2cc(S(=O)(=O)N3CCCCC3)ccc21 -9.08%, Cc1cc(C)cc(NC(=O)C2CCC(CNS(=O)(=O)c3ccc4c(c3)C(C)(C)C(=O)N4C)CC2)c1 (configuration not stated) 7.31%, CCOc1ccc(C(=O)Nc2cc(-c3cn4cccnc4n3)ccc2C)cc1OCC 5.41%, CCN(CC)S(=O)(=O)c1nnc(NC(=O)c2ccc(C(C)C)cc2)s1 -18.3%, O=C(c1ccco1)N1CCN(c2nc3c(Cl)cccc3s2)CC1 -17.4%, O=C(Cn1c(=O)n(-c2ccc(Cl)cc2)c(=O)c2oc3ccccc3c21)Nc1ccccc1 5.39%, CC1CCN(c2ncnc3c2nnn3C)CC1 -12.3%, Cc1cccc(N2CCN(CCCNC(=O)c3nnc(Cc4c(F)cccc4Cl)o3)CC2C)c1 (configuration not stated) -6.25%, CCCSS/C(CCO)=C(\C)N(C=O)Cc1cnc(C)nc1N -13.2%, COc1cccc(C(=O)Nc2ccccc2-c2nnc(-c3cc(OC)ccc3Br)o2)c1 5.09%, Cn1cnc(S(=O)(=O)N2CCC(C(=O)NCc3ccc(F)cc3)CC2)c1 -19.2%, O=C(Cc1ccc(Cl)cc1)NCC(c1cccs1)S(=O)(=O)c1ccc(F)cc1 (configuration not stated) -1.08%, COc1ccc(C2=C(C)C(=O)N(Cc3ccc(C(=O)Nc4cc(C)ccc4C)cc3)S2(=O)=O)cc1 -16.7%, O=C(COC(=O)c1cccc(NC(=O)c2ccc(Br)cc2)c1)c1ccc(Br)cc1 -5.22%, COc1cccc(C(=O)Nc2ccc3nc(N4CCC(C)CC4)cc(C)c3c2)c1 -2.89%, Cc1nn2c(=O)cc(COC(=O)c3cccc(NC(=O)c4ccc(C(C)(C)C)cc4)c3)nc2s1 -1.5%, COc1ccc(C2=CC(c3cccc(C)c3)n3nnnc3N2)cc1 (configuration not stated) -12.1%, CC(C)NC(=O)c1ccccc1NC(=O)c1nsc2ccccc12 -20.5%, CCN(CC)S(=O)(=O)c1ccc2c(c1)N(CC(=O)Nc1ccc(C)cc1C)C(=O)C1CCCN21 (configuration not stated) -11.4%, COc1cc(NC(=O)Cn2nc(-c3ccc(C)c(C)c3)ccc2=O)cc(OC)c1 -13.1%, Cc1ccc(S(=O)(=O)c2nc(S(C)(=O)=O)sc2NCc2ccccc2)cc1 -11.8%, CCOC(=O)c1c(C)oc2nc(C)nc(NCCc3ccc(SC)cc3)c12 -20.9%, COc1ccc(C(=O)CCC(=O)Nc2ccc(OC)c(Cl)c2)cc1 -18.2%, CCOC(=O)c1[nH]c2c(c1Cc1ccccc1OC)C(=O)CC(c1ccc(OCC)cc1)C2 (configuration not stated) -15.8%, Cc1ccc2c(c1)c1c(c(=O)n(Cc3ccccc3)c(=O)n1CC(=O)NCc1ccccc1Cl)n2C -1.12%, O=S(=O)(c1ccc2c(c1)CCN2)N1CCCCCC1 -21.4%, Cc1cccc(C)c1Nc1nc2ccccc2nc1NS(=O)(=O)c1ccccc1 -26.5%, CCC(C)OC(=O)/C(C#N)=C\c1ccc(-c2cccc(C(F)(F)F)c2)o1 (configuration not stated) -33.9%, COc1ccc(C(C)n2c(C)c3c(C)nnc(C)c3c2C)cc1 (configuration not stated) -17.8%, COc1ccc(S(=O)(=O)N(CC(=O)NCc2ccccc2)c2ccc(C)cc2)cc1OC -15.5%, CN(C(=O)CN1C(=O)CCSc2ccc(S(=O)(=O)N3CCCC3)cc21)c1ccccc1 -6.55%, O=C(Cn1c(=O)nc(-c2ccccc2)c2ccccc21)NCc1ccc(F)cc1 4.33%, Cc1cccc(NC2=CC(c3cccc(Br)c3)N(c3cccc(C)c3)C2=O)c1 (configuration not stated) -8.14%, CCOC(=O)c1c(C)[nH]c(C)c1S(=O)(=O)NCC(=O)N1CCN(c2cccc(C)c2)C(C)C1 (configuration not stated) -12.2%, Cc1cc(O)c(C(c2ccccc2)N2CCN(C)CC2)c(=O)n1Cc1ccco1 (configuration not stated) -24.3%, C=Cc1ccc(CN2C(=O)c3ccccc3Sc3ccc(C(=O)OCc4ccco4)cc32)cc1 -1.21%, O=C(Nc1ccccc1)N(Cc1ccc(F)cc1)c1ccccn1 5.33%, CC1=C(C(=O)N2CCN(c3cccc(C)c3C)CC2)C2(CCCCC2)OC1=O -15.9%, COc1ccc(-c2noc(CN(C(C)C)S(=O)(=O)c3ccc(Br)cc3)n2)cc1 -17.9%, COc1ccc(Br)cc1CNC(=O)c1nn(-c2ccc(C)cc2)c(=O)c2c1c1ccccc1n2C -16.4%, CN(C)c1ccc(CNS(=O)(=O)c2ccc3[nH]c4c(c3c2)CCCCC4)cc1 -39%, Cc1ccc(CNC(=O)c2c(O)nc3c(C)cccn3c2=O)cc1 -16.6%, Cc1nc2ccc(S(=O)(=O)NC(CC(C)C)C(=O)N3CCN(c4ccc(F)cc4)CC3)cc2s1 (configuration not stated) -13.1%, Fc1ccc(Cc2cn3cc(-c4ccccc4)nc3s2)cc1 -8.06%, O=C(C1CC1)N1CCN(c2nc3c(Cl)cccc3s2)CC1 -23.5%, COc1ccc(CCNC(=O)CSc2nnnn2-c2cccc(C(C)=O)c2)cc1OC -3.44%, CCOC(=O)c1ccc(NC(=O)c2csnn2)cc1 -13.5%, CCOC(=O)c1cccc(NC(=O)CCC(=O)N2CC(C)Oc3ccc(C)cc32)c1 (configuration not stated) -24.7%, Clc1ccccc1C(c1ccccc1)(c1ccccc1)n1ccnc1 -4.95%, NC(=O)NO -17%, Cc1ccccc1-c1noc(-c2cccnc2N(C)Cc2ccc(Cl)cc2)n1 -9.49%, COc1cccc(CNC(=O)CSc2ncc(S(=O)(=O)c3ccc(Br)cc3)c(=O)[nH]2)c1 -10.5%, CC1CCN(S(=O)(=O)c2ccc3c(c2)N(CC(=O)NC(C)C)C(=O)CO3)CC1 -14.8%, Cc1c(C(=O)Nc2ccc(C(C)C)cc2)sc2nc[nH]c(=O)c12 -0.893%, COc1ccc(CNC(=O)CSc2ncc(S(=O)(=O)c3ccc(C)c(Cl)c3)c(=O)[nH]2)cc1 -7.89%, Cc1ccc(NC(=O)C2CCCN2S(=O)(=O)c2cccc3nsnc23)cc1Cl (configuration not stated) -24.1%, COc1ccc(CNC(=O)c2ccc3c(c2)CCN3S(=O)(=O)c2ccc(C)cc2)cc1 -11.4%, CC1CCN(S(=O)(=O)c2ccc3c(c2)CCN3C(=O)Nc2ccc(Br)cc2)CC1 -7.36%, Cc1ccccc1C(=O)N1CCN(CCc2ccccn2)CC1 -4.2%, O=C(NCCc1ccccc1)C(=O)NCC(c1cccnc1)N1CCN(c2ccccc2F)CC1 (configuration not stated) -8.12%, COc1ccccc1Nc1nn2c(=O)c3ccc(C(=O)NCc4ccc(F)cc4)cc3nc2s1 -24.2%, O=C(C1CCC(Cn2c(=O)c3sccc3n(Cc3cccc(F)c3)c2=O)CC1)N1CCCCC1 (configuration not stated) -8.33%, CCc1cccc2c(-c3ccc(F)cc3)nc(SCC(=O)Nc3ccccc3)nc12 -0.231%, COc1ccc(C(=O)Nc2ccc(-c3cc4ccccc4oc3=O)c(C)c2)cc1OC -13.9%, CC(C)CCNC(=O)C1CCN(C(=O)N2CCOc3ccc(Cl)cc32)CC1 -7.58%, COc1ccc(CCNC(=O)c2ccc(CS(=O)(=O)Cc3cccc(C)c3)o2)cc1OC -13%, CCN1CCN(C(c2ccc(F)cc2)c2c(O)cc(C)n(CCOC)c2=O)CC1 (configuration not stated) -14.1%, Cc1ccc(CNC(=O)C(=O)NCC(c2ccco2)S(=O)(=O)c2cccs2)cc1 (configuration not stated) -16.3%, COc1ccc(-c2n[nH]c3c2C(c2ccc(O)cc2)N(c2ccc(Br)cc2)C3=O)cc1 (configuration not stated) -19.7%, CSc1cccc(NC(=O)N2CCN(c3cc(-c4noc(C)n4)ccc3C)CC2)c1 -24.3%, CCOc1ccc(NC(=O)CSc2cn(CC(=O)N3CCCCCC3)c3ccccc23)cc1 -33.5%, COc1cc(C2CC(=O)N(c3ccccc3)C3=C2C(=O)OC3)cc(OC)c1OC (configuration not stated) -2.38%, O=C(NC1CCCCCC1)c1ccc2c(c1)sc1nc(-c3ccccc3)cn12 -14.2%, CCOC(=O)c1c(C)[nH]c(C)c1S(=O)(=O)N1CCCC(C(=O)Nc2ccc(F)cc2F)C1 (configuration not stated) 1.6%, C=C(C)CSc1nc2sc3c(c2c(=O)n1-c1ccccc1)CCC(C)C3 (configuration not stated) -7.79%, CCN1CCN(c2ncnc3c2cnn3-c2ccc(C)cc2)CC1 -12.6%, CC(C)c1ccc(NC(=O)c2cc(S(=O)(=O)NCc3ccccc3Cl)ccc2F)cc1 -6.3%, Cc1cc2ccccc2n1CCNC(=O)c1cccc(Cl)c1 -10.8%, CCOc1ccc(NC(=O)CSC2=Nc3ccccc3C3=NC(CC(=O)NCc4ccco4)C(=O)N23)cc1 (configuration not stated) -11.6%, COc1ccc(CNC(=O)CC(c2ccc(OC)c(OC)c2)N2Cc3ccccc3C2=O)cc1 (configuration not stated) -1.52%, CCOC(=O)c1sc2ncn(CC(=O)Nc3ccc(C)cc3Br)c(=O)c2c1C -1.93%, CCOc1cc(C(=O)N2CCc3c([nH]c4ccccc34)C2c2ccccc2)cc(OCC)c1OCC (configuration not stated) -2.83%, N#Cc1c[nH]n2c(NC3CCCC3)c(-c3cccc(Cl)c3)nc12 25.7%, Cc1ccc(N(CC(=O)Nc2ccc(C)c(F)c2)S(=O)(=O)c2c(C)n[nH]c2C)cc1 -14.7%, COc1ccc(C)cc1NC(=O)Cn1c(=O)ccc2cc(S(=O)(=O)N3CCCC3)ccc21 -32.9%, COc1ccc(-c2noc(CSc3nnc(-c4ccncc4)n3-c3ccc(C)cc3)n2)cc1 -3.03%, CCc1ccc(Sc2cc(C(=O)NC(C)CC)c3ccccc3n2)cc1 (configuration not stated) -14.4%, CCOc1ccc(OCC(=O)Nc2nnc3n2CCS3)cc1 -21.9%, COc1cccc(NC(=O)c2cnn(-c3ccccc3)c2-n2cccc2)c1 7.5%, CCOc1nc(NC(=O)NS(=O)(=O)Oc2ccccc2)nc(-c2ccccc2)n1 -11.3%, COc1cccc(CNC(=O)C2CCC(CNS(=O)(=O)c3ccc(Br)s3)CC2)c1 (configuration not stated) -15.4%, CCOC(=O)C(Cc1c[nH]c2ccccc12)NC(=O)COc1ccc(Cl)c(C)c1 (configuration not stated) -2.61%, CCOc1ccc(Sc2cc(C(=O)NCCc3ccccc3)c3ccccc3n2)cc1 -6.29%, Cc1ccc(CNC(=O)c2ccc3c(=O)n(-c4ccccc4)c(=O)[nH]c3c2)cc1 -1.06%, COC(=O)c1sc2cccc(F)c2c1S(=O)(=O)N1CCN(c2ccc(F)cc2)CC1 0.217%, Cc1nc2nc(SCC(=O)NCCc3ccc(Cl)cc3)nn2c(C)c1Cc1ccccc1 -5.96%, CCCSc1ncc(Cl)c(C(=O)Nc2nc3ccc(OCC)cc3s2)n1 -9.6%
